The results in this text go back to PubChem BioAssay (NCI).

“And” between values parts separate entries of the source, which are not always exact repeats. Identical values can stand only once.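 Exposure lasted 48 hours, with cells grown in 96-well plates and compounds tested at five concentrations. The concentration for 50% growth inhibition is given as GI50. The concentration for full growth arrest is given as TGI.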

The subject of this assay is NCI-H322M lung. As to the kind of experiment: growth of human tumour cells (NCI), 48 h.
As to `O=C(c1ccc(Cl)cc1)N(C(=S)N1CCN(c2ccccc2)CC1)C1CCCCC1`, the TGI is more than 100 µM.

Turning to `COC(=O)C1=C(O)C(C(=O)OC)[C@@]2(O)[C@@H](C(=O)OC)C(c3ccc(OC(=O)C(Cc4ccccc4)NC(C)=O)cc3)C[C@@H]1[C@@H]2C(=O)OC` (stereo not given in full), the GI50 is 14 µM and the TGI came to 35.1 µM.

For the compound `CCCCCc1c(C)[nH]c(/C=C2\N=C(c3ccc[nH]3)C=C2Oc2ccc(OC)cc2)c1C`, the GI50 was 0.337 µM and 0.0812 µM; the TGI came out at 11 µM.

For `COC1=CC(=O)c2c(O)c3c(c(O)c2C1=O)CC(C)(O)OC3` (stereo not given), the TGI was found to be 11.9 µM.

`NCCCCN(CCCN)C(=O)OCc1ccccc1` gave a TGI of more than 100 µM.

For `Oc1ccc(Br)cc1CN1CCN(Cc2ccc(Cl)cc2)CC1`, the GI50 is 64.1 µM and the TGI was more than 100 µM.

`CSCC[C@@H](NC(=O)[C@H](CC(C)C)NC(=O)C(Cc1cnc[nH]1)NC(=O)CNC(=O)[C@@H](NC(=O)[C@H](C)NC(=O)[C@H](Cc1cn(C=O)c2ccccc12)NC(=O)[C@H](CCC(N)=O)NC(=O)[C@@H](N)CC(N)=O)C(C)C)C(N)=O` (stereo not given in full) showed a TGI of more than 100 µM.

Regarding `CS(=O)(=O)c1ccc(C2=C(c3ccccc3)C(=O)OC2)cc1`, the TGI is more than 100 µM.

`COc1ccc2c(c1)Cc1cc(N=[N+]([O-])c3ccc4c(c3)Cc3cc(OC)ccc3-4)ccc1-2` gave a TGI of more than 100 µM.

For `O=C(O)C(C1NCCS1)N1Cc2ccccc2C1` (stereo not given), the TGI is more than 100 µM.

Regarding `O=C(O)c1cc(/C=C/c2ccc(O)c(O)c2)ccc1O`, the TGI is more than 100 µM.

Take `CCOC(=O)C(C(N)=O)c1nc2cc([N+](=O)[O-])ccc2nc1/C=C(\O)c1ccc(C)cc1` (stereo not given): the TGI was more than 100 µM.

`CC(C)(C)NC(=O)C12C3C4C1C1C2C3C41I` (stereo not given): the TGI was more than 100 µM.

`COc1cc2[nH]c(=O)[nH]c2c2c(C)c[nH]c12` yielded a TGI of more than 100 µM.

`CCCCc1ccc(Nc2nc(N)c3[nH]cnc3n2)cc1`: the TGI is 39.6 µM.

Compound `CC(=O)NC1=NC(=O)/C(=C/c2ccc(Cl)cc2Cl)N1C` gave a TGI of more than 100 µM.

Consider `CCOc1cccc2cccnc12`, for which the TGI is more than 100 µM.

As to `N#CC1=C(N)NC(=S)NC1c1ccc(-c2ccc(-c3nc4ccccc4s3)cc2)o1` (stereo not given), the GI50 is more than 50 µM and the TGI is more than 50 µM.

Compound `COC(=O)CC[C@@H](NC(=O)C(C)NC(=O)COC1C(O)C(COC(=O)CCCCCCCCCCNC(=O)c2ccc([N+](=O)[O-])c3[nH]c4cc(Br)ccc4c(=O)c23)OC(OCc2ccccc2)C1NC(C)=O)C(N)=O` (stereo not given in full) came in with a TGI of more than 100 µM.

Regarding `CC12CCC3=C(CSC4=C3CSc3ccccc34)C1=CCCC2=O` (stereo not given), the TGI was more than 100 µM.

As to `O=C(OCc1ccccc1[N+](=O)[O-])N1c2ccccc2[C@@]23O[C@]24CCC[C@H]3C#C/C=C\C#C[C@H]14`, the TGI is more than 100 µM.

As for `COc1cc(C=C2C(=O)OC(C)(C)OC2=O)cc(OC)c1OC`, the TGI was more than 100 µM.

Turning to `COC(=O)C(=O)C(C(=O)C(=O)Nc1ccc(Cl)cc1Cl)c1nc2ccc(Cl)cc2[nH]c1=O` (stereo not given), the TGI was more than 100 µM.

As for `CCSc1sc(-c2ccc(C)cc2)nc1[P+](c1ccccc1)(c1ccccc1)c1ccccc1`, the GI50 was 0.339 µM and the TGI worked out at 1.29 µM.

With `N=C(N)c1ccc(-c2ccc(-c3ccco3)o2)cc1`, the GI50 was 3.58 µM and the TGI is 12.3 µM.

Turning to `CC(=O)O/N=C1\C=Cc2c(no[n+]2[O-])C1=O`, the TGI was determined as 45.4 µM.

For `Cc1cc(C)c(-c2noc(-c3ccc(Cl)cc3)c2C2=NCCN2)c(C)c1`, the TGI is 96.9 µM.

Take `COc1ccc(-n2cc(-c3ccc(Cl)cc3)[nH]c2=S)cc1Cl`: the GI50 is 76.6 µM and the TGI is more than 100 µM.

In turn, `C/C(=N\NC(=S)N/N=C(\C)c1ccccn1)c1ccccn1` yielded a TGI of more than 100 µM.

As to `O=C(NC12CC3CC(CC(C3)C1)C2)n1cnc2cncnc21`, the TGI was more than 100 µM.

`CCCc1c(OC)c(O)c2c(=O)cc(OC)c3c4c(OC)cc(=O)c5c(O)c(OC)c(CCC)c(c1c23)c54` yielded a TGI of more than 100 µM.

On to `COc1ccc(C2CC(c3cccc(Nc4ccnc5cc(Cl)ccc45)c3)=NN2c2ccccc2)cc1` (stereo not given), for which the GI50 is 6.39 µM and the TGI turned out to be 94.1 µM.

In turn, `Clc1ccc2nc3c(c(-c4ccccc4)nn3-c3ccccc3)c(-c3ccccc3)c2c1` registered a TGI of more than 100 µM.

As for `OCCOCn1nc(-c2ccccc2)nc1-c1cnccn1`, the TGI was more than 100 µM.

As for `Cc1cc(S(=O)(=O)Nc2nc(N)n(-c3ccccc3)n2)c(S)cc1Cl`, the TGI is more than 100 µM.

Consider `Nc1c2c(nc3ccccc13)-c1ccccc1CCC2`, for which the TGI amounted to 42.2 µM.

In turn, `COc1cc(CNc2nc3cc(C(F)(F)F)ccc3nc2C(=O)O)cc(OC)c1OC` showed a TGI of 64 µM.

Consider `CC(=N\O)/C(C)=N/O.CC(=N\O)/C(C)=N/O.[Pd]`, for which the GI50 is 2.02 µM and the TGI is 4.8 µM.

Regarding `O=C1/C(=C/c2ccc(F)cc2)CN(Cc2cn(CCNc3ccnc4cc(Cl)ccc34)nn2)C/C1=C\c1ccc(F)cc1`, the GI50 was 1.54 µM and the TGI was 3.02 µM.

`Nc1ncnc2c1ncn2C1OC(CO)C(O)C1O` (stereo not given): the TGI is > 100 µM and > 450 µM and 65.8 µM.

`NC1=CN2c3ccccc3N(CC(=O)N3CCOCC3)C2C=C1` (stereo not given): the TGI is more than 100 µM.

The compound `O=C(O)CSc1ccn(Cc2ccccc2)c1` returned a TGI of more than 100 µM.

Compound `O=C1CCCc2ccc3c(c21)CC1(Cc2cc4c(cc2C1)CCCC4)C3` yielded a TGI of more than 100 µM.

For `CN1CCN(c2nc(C3=C(c4c[nH]c5ccccc45)C(=O)NC3=O)c3ccccc3n2)CC1`, the GI50 was 19.7 µM and 17.1 µM; the TGI was 52.1 µM and 43.7 µM.

Regarding `N#CC1=C(N)Oc2c(sc3c(F)cccc23)C1c1ccc(Cl)cc1` (stereo not given), the GI50 is 4.22 µM and the TGI amounted to 23.2 µM.

Regarding `COC(=O)c1ccc2n[se]nc2c1`, the TGI was more than 100 µM.

On to `O=C1C=Cc2cc3ccccc3c3cccc1c23`, for which the GI50 was 18 µM and the TGI was found to be 70 µM.

Compound `S=c1sc2ccccc2n1CN1CCN(Cc2ccccc2)CC1` came in with a TGI of more than 100 µM.

On to `COC(=O)c1nc(N)[nH]c(=O)c1-c1ccc(Cl)cc1`, for which the TGI was more than 100 µM.

`CN(C)CCNc1ccccn1` returned a TGI of more than 100 µM.

`CSc1nc(NC2CC2)c2c(n1)Sc1nc3ccccc3n1N=C2` displayed a TGI of 34.2 µM.

`COC1=C(NC(C)=O)C(=O)c2nc3n(c2C1=O)CCC3` gave a TGI of 36 µM.

For `COc1cc(C2C3=C(COC3=O)N(CCO)c3cc4c(cc32)OCCO4)cc(OC)c1O` (stereo not given), the GI50 was more than 16.1 µM and the TGI was more than 50 µM.

Turning to `N.N.NCCCCN.O=C([O-])CCl.O=C([O-])CCl.O=C([O-])CCl.O=C([O-])CCl.[Pt+4].[Pt+4]`, the TGI is more than 50 µM.

Turning to `COC(=O)C1=C(O)C(C(=O)OC)[C@@]2(O)[C@@H](C(=O)OC)C(c3ccccc3C(F)(F)F)C[C@@H]1[C@@H]2C(=O)OC` (stereo not given in full), the GI50 is 12.8 µM and the TGI stood at 25.5 µM.

Regarding `COC(=O)c1ccc2c(c1)CC1(C2)Cc2ccc3c(c2C1)CCC3` (stereo not given), the TGI is more than 100 µM.

With `CO/C=C(/C(=O)OC)c1ccccc1[C@H]1C[C@@H]1c1ccc(OC)cc1`, the TGI was more than 100 µM.

For the compound `C[N+](C)(C)CC(=O)NC(=O)N/N=C\C(CC#N)CN(Cc1ccccc1)Cc1ccccc1` (stereo not given), the TGI was more than 100 µM.

`CCCCc1c2c(nc3c1CCc1cc(C=O)c(N)nc1-3)/C(=C/c1ccccc1)CCC2` displayed a TGI of more than 100 µM.

`COC(=O)[C@@]12CC3CN(Cc4c1[nH]c1ccccc41)C2CC3=O` returned a TGI of more than 100 µM.
